From the antibiotic and cytotoxicity screens of Wong et al. (2023) come the findings set out here.

Assay [1] has as its system HSkMC (human skeletal muscle cells). The experiment in a line: cytotoxicity call (relative viability < 0.9). Conditions: 10 µM.
The test system of assay [2] is HepG2. The experiment in a line: cytotoxicity call (relative viability < 0.9). The note with it: 10 µM.
Assay [3] relates to S. aureus RN4220. The experiment in a line: growth inhibition call (relative growth <= 0.2). The note with it: 50 µM.

The list shows a part of the results.

Take `C[C@@H]1CCCCO[C@@H](CN(C)C(=O)Cc2ccccc2)[C@@H](C)CN([C@H](C)CO)C(=O)c2cc(NS(=O)(=O)c3cccs3)ccc2O1`: the cytotoxicity call in assay [1] and in assay [2] was “inactive” in each case. For the same molecule, in assay [3], the growth inhibition call is “inactive”.
In the case of `COc1ccccc1-c1ccc2c(c1)O[C@@H](CN(C)CC1CCOCC1)[C@@H](C)CN([C@@H](C)CO)S2(=O)=O`, the cytotoxicity call in assay [1] and in assay [2] was “inactive” throughout. In addition, the growth inhibition call in assay [3] is “inactive”.
As for `CCS(=O)(=O)Nc1ccc2c(c1)C(=O)N(C)[C@H]1CC[C@H](CC(=O)NCc3ccc(OC)cc3)O[C@H]1CO2`, the cytotoxicity call in assay [1] and in assay [2] was “inactive” in each case. Besides, the growth inhibition call in assay [3] was “inactive”.
On to `OC[C@H]1O[C@@H](O[C@@H]2[C@@H](O)[C@H](O)[C@H](O[C@@H]3[C@@H](O)[C@H](O)[C@H](O)O[C@@H]3CO)O[C@@H]2CO)[C@@H](O)[C@@H](O)[C@@H]1O`, for which the cytotoxicity call in assay [1] and in assay [2] was “inactive” each time. Also, the growth inhibition call in assay [3] is “inactive”.
On to `C[C@@H]1CN([C@@H](C)CO)C(=O)Cc2cc(NS(=O)(=O)c3cn(C)cn3)ccc2O[C@@H]1CN(C)S(=O)(=O)c1cccs1`, for which the cytotoxicity call in assay [1] and in assay [2] was “inactive” each time. The growth inhibition call in assay [3] was “inactive”.
In the case of `C[C@@H]1CN([C@@H](C)CO)C(=O)CCCn2cc(nn2)CO[C@@H]1CN(C)C(=O)c1cc(-c2ccccc2)on1`, the cytotoxicity call in assay [1] and in assay [2] was “inactive” each time. For the same molecule, the growth inhibition call in assay [3] is “inactive”.
`C[C@H]1CN([C@@H](C)CO)C(=O)c2cc(NC(=O)CCN3CCOCC3)ccc2O[C@@H]1CN(C)C(=O)Nc1ccc(F)cc1`: the cytotoxicity call in assay [1] and in assay [2] was “inactive” each time. In addition, in assay [3], the growth inhibition call was “inactive”.
On to `CO[C@@H]1CN(C)C(=O)c2cc(NC(=O)c3ccccc3)ccc2OC[C@H](C)N(C(=O)CN(C)C)C[C@@H]1C`, for which the cytotoxicity call in assay [1] and in assay [2] was “inactive” each time. Further, in assay [3], the growth inhibition call was “inactive”.
On to `C[C@@H]1CN([C@@H](C)CO)C(=O)Cc2cc(NC(=O)CCN3CCOCC3)ccc2O[C@H]1CN(C)S(=O)(=O)c1ccccc1`, for which the cytotoxicity call in assay [1] and in assay [2] was “inactive” in each case. Further, the growth inhibition call in assay [3] was “inactive”.
As to `C[C@@H]1CCCCO[C@H](CN(C)Cc2ccc3c(c2)OCO3)[C@H](C)CN([C@@H](C)CO)C(=O)c2cc(NS(=O)(=O)c3ccc(F)cc3)ccc2O1`, the cytotoxicity call in assay [1] and in assay [2] was “inactive” throughout. The growth inhibition call in assay [3] was “inactive”.
For `C[C@H](CO)N1C[C@H](C)[C@H](CN(C)C(=O)Nc2cccc3ccccc23)Oc2ccc(NC(=O)Nc3ccc4c(c3)OCO4)cc2C1=O`, the cytotoxicity call in assay [1] and in assay [2] was “inactive” in each case. In addition, in assay [3], the growth inhibition call is “inactive”.
`C[C@H]1CN([C@@H](C)CO)C(=O)c2cc(C#Cc3ccccc3)cnc2O[C@@H]1CN(C)S(=O)(=O)c1ccccc1F`: the cytotoxicity call in assay [1] and in assay [2] was “inactive” each time. Besides, the growth inhibition call in assay [3] is “inactive”.
In the case of `CC(C)NC(=O)Nc1ccc2c(c1)C(=O)N([C@@H](C)CO)C[C@@H](C)[C@H](CN(C)C(=O)Nc1ccc(C(F)(F)F)cc1)OCCCC[C@@H](C)O2`, the cytotoxicity call in assay [1] is “inactive”. Moreover, in assay [2], the cytotoxicity call is “active”. The growth inhibition call in assay [3] was “inactive”.
`C[C@H](CO)N1C[C@H](C)[C@@H](CN(C)C(=O)Nc2cccc(Oc3ccccn3)c2)OCc2cnnn2CCCC1=O`: the cytotoxicity call in assay [1] and in assay [2] was “inactive” throughout. In assay [3], the growth inhibition call is “inactive”.
For `CN1C(=O)c2cc(NC(=O)C3CCOCC3)ccc2OC[C@H]2O[C@H](CC(=O)NCc3ccccc3F)CC[C@@H]21`, the cytotoxicity call in assay [1] and in assay [2] was “inactive” throughout. The growth inhibition call in assay [3] is “inactive”.
For `OCCc1ccccc1`, the cytotoxicity call in assay [1] and in assay [2] was “inactive” each time. In addition, in assay [3], the growth inhibition call is “inactive”.
For `C[C@@H]1CCCCO[C@@H](CN(C)Cc2ccc(Cl)c(Cl)c2)[C@@H](C)CN([C@@H](C)CO)C(=O)c2cc(NC(=O)Cc3ccccc3)ccc2O1`, the cytotoxicity call in assay [1] and in assay [2] was “inactive” in each case. Further, the growth inhibition call in assay [3] is “inactive”.
With `COc1ccc(S(=O)(=O)N(C)C[C@H]2OCCCC[C@H](C)Oc3ccc(NS(C)(=O)=O)cc3C(=O)N([C@H](C)CO)C[C@@H]2C)cc1`, the cytotoxicity call in assay [1] and in assay [2] was “inactive” each time. The growth inhibition call in assay [3] was “inactive”.
With `C[C@@H]1CCCCO[C@H](CN(C)C(=O)Nc2ccccc2)[C@@H](C)CN([C@H](C)CO)C(=O)c2cc(NC(=O)NC3CCCCC3)ccc2O1`, the cytotoxicity call in assay [1] and in assay [2] was “inactive” in each case. For the same molecule, the growth inhibition call in assay [3] was “inactive”.
Turning to `C[C@@H](SC(=S)N1CCOCC1)C(=O)O`, the cytotoxicity call in assay [1] and in assay [2] was “inactive” each time. Moreover, the growth inhibition call in assay [3] was “inactive”.
On to `CC(C)NC(=O)N(C)C[C@H]1Oc2cc(C#Cc3ccccn3)ccc2S(=O)(=O)N([C@@H](C)CO)C[C@@H]1C`, for which the cytotoxicity call in assay [1] and in assay [2] was “inactive” each time. Besides, the growth inhibition call in assay [3] was “inactive”.
For `C[C@H](CO)N1C[C@H](C)[C@H](CN(C)S(=O)(=O)c2ccc(Cl)cc2)OCCCC[C@H](C)Oc2ccc(NS(=O)(=O)c3ccccc3)cc2C1=O`, the cytotoxicity call in assay [1] is “inactive”. In addition, in assay [2], the cytotoxicity call was “active”. In addition, the growth inhibition call in assay [3] was “inactive”.
In the case of `C[C@H]1CCCCO[C@H](CN(C)C(=O)Nc2ccccc2)[C@@H](C)CN([C@@H](C)CO)C(=O)c2cc(NC(=O)c3ccncc3)ccc2O1`, the cytotoxicity call in assay [1] and in assay [2] was “inactive” throughout. Further, in assay [3], the growth inhibition call is “inactive”.
For the molecule `COc1ccc(NC(=O)N(C)C[C@@H]2Oc3c(NC(=O)CCCCCC(=O)Nc4ccccc4N)cccc3C(=O)N([C@@H](C)CO)C[C@@H]2C)cc1`, the cytotoxicity call in assay [1] and in assay [2] was “inactive” throughout. For the same molecule, the growth inhibition call in assay [3] was “inactive”.
As to `C[C@H]1CCCCO[C@H](CN(C)C(=O)C2CCCCC2)[C@@H](C)CN([C@@H](C)CO)C(=O)c2cc(NS(=O)(=O)c3ccc(Cl)cc3)ccc2O1`, the cytotoxicity call in assay [1] is “active”. Moreover, in assay [2], the cytotoxicity call is “inactive”. Besides, the growth inhibition call in assay [3] was “inactive”.
With `C[C@H](CO)N1C[C@H](C)[C@@H](CN(C)C(=O)CN(C)C)Oc2cc(C#Cc3ccc(F)cc3)ccc2S1(=O)=O`, the cytotoxicity call in assay [1] and in assay [2] was “inactive” each time. In addition, in assay [3], the growth inhibition call was “inactive”.
Consider `C[C@@H]1CN([C@H](C)CO)C(=O)c2cc(NS(=O)(=O)c3cn(C)cn3)ccc2O[C@H]1CN(C)Cc1ccc2c(c1)OCO2`, for which the cytotoxicity call in assay [1] and in assay [2] was “inactive” throughout. Further, the growth inhibition call in assay [3] is “inactive”.
`C[C@@H]1CN([C@@H](C)CO)C(=O)CCCn2cc(nn2)CO[C@H]1CN(C)S(=O)(=O)c1cccc(C#N)c1`: the cytotoxicity call in assay [1] and in assay [2] was “inactive” in each case. The growth inhibition call in assay [3] is “inactive”.
Consider `NC(=O)NCC#Cc1ccc2c(c1)[C@]1(C(=O)N2)[C@H](c2ccccc2OCCO)N2[C@H](c3ccccc3)[C@H](c3ccccc3)OC(=O)[C@H]2[C@@H]1C(=O)Nc1nc2ccccc2s1`, for which the cytotoxicity call in assay [1] and in assay [2] was “inactive” in each case. In addition, the growth inhibition call in assay [3] is “inactive”.
Regarding `C[C@@H]1CN([C@H](C)CO)C(=O)c2cc(-c3cccc(C(=O)N(C)C)c3)cnc2O[C@@H]1CN(C)S(=O)(=O)c1cccc(F)c1`, the cytotoxicity call in assay [1] and in assay [2] was “inactive” in each case. For the same molecule, the growth inhibition call in assay [3] is “inactive”.
In the case of `C[C@@H]1CN([C@@H](C)CO)C(=O)c2cc(C#CCN(C)C)cnc2O[C@H]1CN(C)S(C)(=O)=O`, the cytotoxicity call in assay [1] and in assay [2] was “inactive” each time. In addition, the growth inhibition call in assay [3] is “inactive”.
As for `O=C(Nc1ccc(C(=O)O)c(O)c1)c1ccccc1`, the cytotoxicity call in assay [1] and in assay [2] was “inactive” throughout. For the same molecule, the growth inhibition call in assay [3] was “inactive”.
As for `C[C@@H]1CN([C@@H](C)CO)C(=O)c2cc(NC(=O)Nc3ccc(C(F)(F)F)cc3)ccc2O[C@H]1CN(C)Cc1ccc(Oc2ccccc2)cc1`, the cytotoxicity call in assay [1] and in assay [2] was “active” throughout. Also, in assay [3], the growth inhibition call was “inactive”.
`CC(C)NC(=O)Nc1ccc2c(c1)CC(=O)N([C@@H](C)CO)C[C@@H](C)[C@H](CN(C)C(=O)Nc1ccc3c(c1)OCO3)O2`: the cytotoxicity call in assay [1] and in assay [2] was “inactive” throughout. Further, in assay [3], the growth inhibition call is “inactive”.
`C=CCOC(=O)[C@H]1[C@@H]2C(=O)O[C@@H](c3ccccc3)[C@@H](c3ccccc3)N2[C@@H](c2ccc(OCCOC(=O)[C@@H]3C[C@@H]4C(=O)N5CCC[C@H]5C(=O)N4[C@@H]3c3ccc(O)cc3)cc2)[C@]12C(=O)Nc1ccccc12`: the cytotoxicity call in assay [1] and in assay [2] was “inactive” in each case. Moreover, in assay [3], the growth inhibition call was “inactive”.
Take `C[C@H](CO)N1C[C@H](C)[C@@H](CN(C)Cc2ccccc2)Oc2ccc(NC(=O)Cn3cnnn3)cc2CC1=O`: the cytotoxicity call in assay [1] and in assay [2] was “inactive” throughout. Besides, in assay [3], the growth inhibition call is “inactive”.
For `C[C@H]1CCCCO[C@@H](CN(C)C(=O)Nc2ccc(F)cc2)[C@@H](C)CN([C@@H](C)CO)C(=O)c2cc(NS(=O)(=O)c3ccc(F)cc3)ccc2O1`, the cytotoxicity call in assay [1] and in assay [2] was “inactive” in each case. In assay [3], the growth inhibition call is “inactive”.
`CC(C)c1nc(N(C)S(C)(=O)=O)nc(-c2ccc(F)cc2)c1C=CC(O)CC(O)CC(=O)[O-].[Ca+2]` (stereo unspecified): the cytotoxicity call in assay [1] and in assay [2] was “inactive” in each case. Further, the growth inhibition call in assay [3] is “inactive”.
`CC12C=CC(=O)C=C1CCC1C3CC(O)C(O)(C(=O)CO)C3(C)CC(O)C12F` (stereo unspecified): the cytotoxicity call in assay [1] and in assay [2] was “inactive” each time. Also, the growth inhibition call in assay [3] was “inactive”.
Take `Clc1ccc(-c2cc[nH]n2)cc1`: the cytotoxicity call in assay [1] and in assay [2] was “inactive” each time. The growth inhibition call in assay [3] is “inactive”.
Turning to `COc1ccc([Si](C)(C)[C@@H]2[C@@H](CCn3cc([C@H](O)c4ccccc4)nn3)O[C@]3(C(=O)N(c4ccccc4)c4ccccc43)[C@H]2C)cc1`, the cytotoxicity call in assay [1] and in assay [2] was “inactive” throughout. The growth inhibition call in assay [3] is “inactive”.
In the case of `C[C@H]1CN([C@@H](C)CO)S(=O)(=O)c2ccc(-c3cccnc3)cc2O[C@H]1CN(C)C(=O)NC1CCCCC1`, the cytotoxicity call in assay [1] and in assay [2] was “inactive” throughout. Also, in assay [3], the growth inhibition call was “inactive”.
